For assay [1], the target named is Myc-DDK-tagged TRIM21 (human) (UniProt P19474). Description: co-IP; HEK293T or HEK293 WT cells co-transfected (also UBA6 KO or USE1 KO cells reconstituted with HA-UBA6 or HIS-USE1); cleared Triton X-100 lysate, FLAG M2 affinity gel overnight at 4°C, blot for HA under reducing conditions (4% 2-ME); what is detected is the covalent FAT10-TRIM21 conjugate at ∼80 kD; some samples treated with TNF, cycloheximide and/or MG132.

The chains behind the UniProt entries cited, without tags or fusion partners. Where a name states a change or a piece, a line headed by the entry shows the natural chain unless it says otherwise. A line that says so, or that is headed by a name, gives the form on record, which may keep a tag or linker. Residues count along the entry.
UniProt P19474: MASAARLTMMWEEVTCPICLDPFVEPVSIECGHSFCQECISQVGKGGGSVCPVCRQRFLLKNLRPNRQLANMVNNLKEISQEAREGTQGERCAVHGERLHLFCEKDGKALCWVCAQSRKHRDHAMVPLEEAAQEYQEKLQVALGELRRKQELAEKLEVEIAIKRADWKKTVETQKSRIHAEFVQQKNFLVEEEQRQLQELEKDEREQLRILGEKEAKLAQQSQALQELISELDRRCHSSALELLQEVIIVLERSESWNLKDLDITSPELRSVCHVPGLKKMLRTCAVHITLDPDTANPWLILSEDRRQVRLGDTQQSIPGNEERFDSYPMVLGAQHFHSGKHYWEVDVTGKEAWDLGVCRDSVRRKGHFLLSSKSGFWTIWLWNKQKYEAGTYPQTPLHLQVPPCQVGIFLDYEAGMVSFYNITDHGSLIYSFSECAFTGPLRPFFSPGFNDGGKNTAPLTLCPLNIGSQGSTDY
Myc-DDK-TRIM21 ΔRING (del aa 1–54): residues 55-475 of P19474
Myc-DDK-TRIM21 ΔB-box (del aa 55–123) (P19474, form named): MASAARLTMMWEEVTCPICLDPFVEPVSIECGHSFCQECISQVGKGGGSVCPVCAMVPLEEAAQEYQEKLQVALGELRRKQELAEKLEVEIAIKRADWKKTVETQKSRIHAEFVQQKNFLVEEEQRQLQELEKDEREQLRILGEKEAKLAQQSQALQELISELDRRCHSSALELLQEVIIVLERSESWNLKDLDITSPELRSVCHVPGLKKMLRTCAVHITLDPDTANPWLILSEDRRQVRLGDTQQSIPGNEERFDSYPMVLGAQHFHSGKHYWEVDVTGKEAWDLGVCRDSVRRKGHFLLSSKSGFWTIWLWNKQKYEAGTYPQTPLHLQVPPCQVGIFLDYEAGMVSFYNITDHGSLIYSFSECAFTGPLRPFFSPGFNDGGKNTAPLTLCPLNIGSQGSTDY
Myc-DDK-TRIM21 ΔCoiled-coil (del aa 125–235) (P19474, form named): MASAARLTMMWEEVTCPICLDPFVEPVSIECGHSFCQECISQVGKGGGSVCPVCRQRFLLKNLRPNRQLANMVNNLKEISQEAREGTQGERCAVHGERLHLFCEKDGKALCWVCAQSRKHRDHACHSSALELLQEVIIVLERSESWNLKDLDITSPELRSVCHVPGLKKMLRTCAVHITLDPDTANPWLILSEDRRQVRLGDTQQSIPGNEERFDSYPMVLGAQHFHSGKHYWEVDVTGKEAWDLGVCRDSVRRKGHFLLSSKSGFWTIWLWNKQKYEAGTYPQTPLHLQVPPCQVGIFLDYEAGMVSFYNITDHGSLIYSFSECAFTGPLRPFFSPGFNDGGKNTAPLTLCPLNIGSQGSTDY
UniProt O15205: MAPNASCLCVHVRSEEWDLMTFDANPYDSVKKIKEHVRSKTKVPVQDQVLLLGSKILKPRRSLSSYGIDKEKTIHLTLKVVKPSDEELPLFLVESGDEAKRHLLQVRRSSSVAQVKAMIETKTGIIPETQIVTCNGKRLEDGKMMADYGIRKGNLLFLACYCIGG
tagless recombinant FAT10AV (O15205, form named): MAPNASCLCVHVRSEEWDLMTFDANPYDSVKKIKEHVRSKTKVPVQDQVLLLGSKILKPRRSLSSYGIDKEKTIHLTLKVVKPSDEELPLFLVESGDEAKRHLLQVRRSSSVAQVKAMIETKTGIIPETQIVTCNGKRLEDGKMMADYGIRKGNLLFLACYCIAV

Assay [2] has the same target. Put plainly: co-IP; HEK293 UBA6 KO cells co-transfected, with or without 600 U/ml TNF; FLAG immunoprecipitation, blot for HA under reducing conditions; read-out is the covalent conjugate.
Assay [3] shares this target. Put plainly: co-IP; HEK293 USE1 KO cells co-transfected, with or without 600 U/ml TNF; FLAG immunoprecipitation, blot for HA under reducing conditions; read-out is the covalent conjugate.
Assay [4] has the same target. Description: condition: only in HEK293 USE1 KO cells reconstituted with USE1-C188A; co-IP; HEK293 USE1 KO cells reconstituted with HIS-USE1 C188A; FLAG immunoprecipitation, blot for HA under reducing conditions; read-out is the covalent conjugate.
The target in assay [5] is Myc-DDK-TRIM21 ΔB-box (del aa 55–123) (human) (UniProt P19474). Description: co-IP; HEK293T or HEK293 WT cells co-transfected (also UBA6 KO or USE1 KO cells reconstituted with HA-UBA6 or HIS-USE1); cleared Triton X-100 lysate, FLAG M2 affinity gel overnight at 4°C, blot for HA under reducing conditions (4% 2-ME); what is detected is the covalent FAT10-TRIM21 conjugate at ∼80 kD; some samples treated with TNF, cycloheximide and/or MG132.

In assay [6] the target is Myc-DDK-TRIM21 ΔCoiled-coil (del aa 125–235) (human) (UniProt P19474). The description is as above.
The target of assay [7] is Myc-DDK-TRIM21 ΔRING (del aa 1–54) (human) (UniProt P19474). Described as above.
Assay [8] deals with 6xHIS-3xFLAG-FAT10 (UniProt O15205). Put plainly: pull-down.
The target of assay [9] is recombinant human C-Myc-DDK-TRIM21 (human) (UniProt P19474). Description: in vitro FAT10ylation assay (SDS-PAGE and Western blot); 0.54 μg FLAG-UBA6, 3 μg FAT10 or FAT10-AV and 1 μg C-Myc-DDK-TRIM21 in 20 μl 20 mM Tris-HCl pH 7.6, 50 mM NaCl, 10 mM MgCl2, 0.1 mM DTT, with or without 4 mM ATP, 37°C (60 min in the methods, 30 min in the legend); blot for TRIM21 under reducing conditions; read-out is the covalent conjugate; both purified. Background: In western blotting, separated proteins are transferred to a membrane and probed.

The values below come from paper PMC11231494.

Results are given in words; binding and its absence hold for the method and conditions named. For some assays here: In cells and extracts the contact can be indirect. Some binding calls cover weakened binding; strength is not graded here.

With HA-FAT10AV (from UniProt O15205 1-165), the binding result in [1] is “no binding”.

In the case of “HA-tagged FAT10 (from UniProt O15205 1-165)”, the binding result is recorded as “no binding (condition: in HEK293 UBA6 KO cells)” in assay [2]; “no binding (condition: in HEK293 USE1 KO cells)” in [3]; “no binding” in assay [4]; “binds” in assay [5]; “no binding” in assay [6]; “binds” in assay [7]. The binding result in [1] was “binds”.

For “endogenous TRIM21 (from UniProt P19474 1-475)”, in [8], the binding result is reported as “binds”.

Turning to “tagless recombinant FAT10 (from UniProt O15205 1-165)”, in [9], the binding result is “binds”.

Consider “tagless recombinant FAT10AV (from UniProt O15205 1-165)”, for which the binding entry in assay [9] is recorded as “no binding”.
